Reference: the BET-seq Pho4 binding data (Le et al. 2018)
The other results are listed elsewhere or left out. These are noisy estimates, calculated here from bound and input reads.

target: T1, Pho4 (S. cerevisiae) (UniProt P07270); test: relative binding free energy (BET-seq); higher = weaker binding; conditions: reference: library average
T1 sequence: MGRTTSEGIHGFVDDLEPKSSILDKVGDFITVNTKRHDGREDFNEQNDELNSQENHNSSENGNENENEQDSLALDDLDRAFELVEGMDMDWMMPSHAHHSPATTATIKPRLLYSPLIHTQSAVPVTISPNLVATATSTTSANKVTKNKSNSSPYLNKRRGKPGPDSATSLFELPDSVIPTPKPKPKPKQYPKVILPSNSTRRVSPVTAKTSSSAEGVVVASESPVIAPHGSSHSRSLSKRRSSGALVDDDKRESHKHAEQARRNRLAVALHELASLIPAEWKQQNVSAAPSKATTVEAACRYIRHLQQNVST

| Sequence | relative binding free energy [kcal/mol] |
| --- | --- |
| ATTATCACGTGGCGTT | 0.09 |
| AGCGTCACGTGGAAGG | 0.29 |
| GGGTACACGTGGTTGC | -0.02 |
| ATCTGCACGTGTGGCG | 0 |
| CTGGTCACGTGAGTGT | 0.2 |
| GGGTGCACGTGAACGT | 0.2 |
| GGGAGCACGTGACGGT | 0.11 |
| TTTCTCACGTGCAGTG | 0.22 |
| GGGATCACGTGGATAG | 0.22 |
| TGTGCCACGTGTGTAG | -0.05 |
| ATGTACACGTGTGGTA | 0.17 |
| ATGAGCACGTGAGTAG | 0.05 |
| AGGCGCACGTGAATGG | 0.12 |
| GTTTTCACGTGATATG | 0.28 |
| TAATGCACGTGCGGGT | -0.03 |
| GTAGGCACGTGGGTCC | -0.25 |
| AGAGACACGTGTGGAG | 0.11 |
| TAGGTCACGTGTATTT | 0.03 |
| ATTCACACGTGTGTTT | 0.1 |
| TACTGCACGTGGCTGT | -0.1 |
| AGTTGCACGTGCGATA | 0.01 |
| ATGTGCACGTGCACGT | -0.03 |
| GTGTACACGTGTTTGT | 0.05 |

| Sequence | relative binding free energy [kcal/mol] |
| --- | --- |
| TTTTTCACGTGATGTC | 0.29 |
| TTTTACACGTGAATCT | 0.38 |
| TTTGCCACGTGATTAT | 0.12 |
| GTGTACACGTGTAATT | 0.2 |
| ATGGTCACGTGTAGGA | 0.14 |
| TAGAGCACGTGTGTTG | -0.01 |
| TATGTCACGTGGAATT | 0.13 |
| TGATGCACGTGATCTG | 0.02 |
| ATGGTCACGTGAGGCA | 0.27 |
| TGGCGCACGTGCTAGT | -0.07 |
| GTTGCCACGTGTGGGA | 0 |
| GTCATCACGTGTTTTA | 0.11 |
| ATTTTCACGTGGGACG | 0.23 |
| GGGGACACGTGGTGCA | 0.04 |
| TGGGGCACGTGTTGGT | -0.09 |
| AGATGCACGTGAGGAG | 0.15 |
| GAGGCCACGTGAGAGT | 0.35 |
| ATTAACACGTGAGTAG | 0.14 |
| AGAATCACGTGGTTTT | 0.15 |
| CTAATCACGTGGTTTT | 0.07 |
| GTCTGCACGTGGGGAT | -0.16 |
| TGTCTCACGTGCAGTG | 0.14 |
| TAGCTCACGTGATGTG | 0.27 |

| Sequence | relative binding free energy [kcal/mol] |
| --- | --- |
| TGGTTCACGTGTTTTA | 0.25 |
| GGAGGCACGTGGGGAA | -0.03 |
| AATGTCACGTGGCAGT | 0.07 |
| TAAGACACGTGGGATT | -0.09 |
| CTTTACACGTGTTGGG | 0.15 |
| TAGTGCACGTGGTGAC | -0.04 |
| AGTGGCACGTGGCGAC | -0.17 |
| TTTGACACGTGTGTAA | 0.01 |
| TATATCACGTGTATTA | 0.15 |
| TTAGGCACGTGCGGAA | -0.25 |
| AGATTCACGTGTGTCA | 0.27 |
| TTGACCACGTGCGTGG | -0.17 |
| ATGCGCACGTGGAAGG | -0.15 |
| GGGCTCACGTGGCGTG | 0.09 |
| AGTTACACGTGTTTGT | 0.05 |
| CGTGACACGTGTATAG | 0.06 |
| CGTAACACGTGTTTGG | 0.02 |
| CTTTTCACGTGTGGTG | 0.24 |
| GGGTGCACGTGTCTCT | 0.02 |
| AGTTTCACGTGGTTTT | 0.28 |
| TGTGTCACGTGGTGTC | 0 |
| TGAAACACGTGTGGCT | 0.04 |
| GTGATCACGTGATTGA | 0.18 |

| Sequence | relative binding free energy [kcal/mol] |
| --- | --- |
| GGGGTCACGTGGCACG | -0.03 |
| CTATACACGTGTTGGT | 0.06 |
| ATTAGCACGTGTCTTG | -0.04 |
| CAGCGCACGTGTGAGG | -0.06 |
| GGCGTCACGTGTGGCT | -0.09 |
| GGGTCCACGTGGGGAA | -0.06 |
| TAGCTCACGTGTGTTT | 0.36 |
| CTTATCACGTGTGGCT | 0.22 |
| TGATACACGTGTGGCA | 0.03 |
| CGGTGCACGTGGATGA | -0.09 |
| TATAACACGTGCGGTT | 0.01 |
| CGTGACACGTGAGTGT | 0.05 |
| TAGGCCACGTGGGGTG | -0.36 |
| GATTTCACGTGTTTAG | 0.33 |
| AGGGACACGTGCAGTT | -0.03 |
| TGTTTCACGTGAAAGA | 0.25 |
| TGCCTCACGTGGTGGT | 0.07 |
| GGAATCACGTGTTTAG | 0.24 |
| GATCTCACGTGGTATT | 0.31 |
| AGGTTCACGTGTCTAT | 0.24 |
| TGCTGCACGTGGTGTG | -0.15 |
| TAAGGCACGTGCGGCG | -0.19 |
| GGATGCACGTGAATGG | 0.19 |

| Sequence | relative binding free energy [kcal/mol] |
| --- | --- |
| TGTTGCACGTGATCAA | 0.13 |
| AAAGGCACGTGGTGGG | -0.18 |
| TTACTCACGTGGGGAT | 0.12 |
| TTTGACACGTGTTACG | -0.01 |
| GATGGCACGTGTAAGA | 0.13 |
| TAGGTCACGTGGTGCA | 0.02 |
| AAGGACACGTGCGTGG | -0.05 |
| TTAGCCACGTGGTGTC | -0.12 |
| TGGGTCACGTGTAAGG | 0.21 |
| AGTTGCACGTGTAGTC | 0.09 |
| TAAGTCACGTGGGAAT | 0.13 |
| AATCGCACGTGTGTTT | -0.03 |
| CGGGCCACGTGTGTAG | -0.03 |
| GGGTGCACGTGTGAAG | 0.03 |
| CGAGGCACGTGAGTTG | 0.09 |
| GGAATCACGTGCTAGT | 0.18 |
| ATAAGCACGTGGTCGG | -0.19 |
| GTGATCACGTGAAAGG | 0.36 |
| GAAGGCACGTGCAGGG | -0.18 |
| GGACTCACGTGGGGTT | 0.09 |
| TTAGTCACGTGGATGG | 0.07 |
| GGATTCACGTGTGGGT | 0.3 |
| GTGTGCACGTGTAGGA | -0.05 |
